Data from PMC4336329 (PLoS ONE, 2015).
Among all 310,000 compounds or so, about 2,200 (0.71%) showed an effect of 50% or more. The effect is printed as a negative number. The list shows a part of the results.

These compounds were tested against human ether-à-go-go-related gene (hERG) potassium channel (human, UniProt Q12809) (assay: primary screen, population patch clamp on CHO cells stably expressing hERG).
Chain of human ether-à-go-go-related gene (hERG) potassium channel (Q12809 whole entry, looked up): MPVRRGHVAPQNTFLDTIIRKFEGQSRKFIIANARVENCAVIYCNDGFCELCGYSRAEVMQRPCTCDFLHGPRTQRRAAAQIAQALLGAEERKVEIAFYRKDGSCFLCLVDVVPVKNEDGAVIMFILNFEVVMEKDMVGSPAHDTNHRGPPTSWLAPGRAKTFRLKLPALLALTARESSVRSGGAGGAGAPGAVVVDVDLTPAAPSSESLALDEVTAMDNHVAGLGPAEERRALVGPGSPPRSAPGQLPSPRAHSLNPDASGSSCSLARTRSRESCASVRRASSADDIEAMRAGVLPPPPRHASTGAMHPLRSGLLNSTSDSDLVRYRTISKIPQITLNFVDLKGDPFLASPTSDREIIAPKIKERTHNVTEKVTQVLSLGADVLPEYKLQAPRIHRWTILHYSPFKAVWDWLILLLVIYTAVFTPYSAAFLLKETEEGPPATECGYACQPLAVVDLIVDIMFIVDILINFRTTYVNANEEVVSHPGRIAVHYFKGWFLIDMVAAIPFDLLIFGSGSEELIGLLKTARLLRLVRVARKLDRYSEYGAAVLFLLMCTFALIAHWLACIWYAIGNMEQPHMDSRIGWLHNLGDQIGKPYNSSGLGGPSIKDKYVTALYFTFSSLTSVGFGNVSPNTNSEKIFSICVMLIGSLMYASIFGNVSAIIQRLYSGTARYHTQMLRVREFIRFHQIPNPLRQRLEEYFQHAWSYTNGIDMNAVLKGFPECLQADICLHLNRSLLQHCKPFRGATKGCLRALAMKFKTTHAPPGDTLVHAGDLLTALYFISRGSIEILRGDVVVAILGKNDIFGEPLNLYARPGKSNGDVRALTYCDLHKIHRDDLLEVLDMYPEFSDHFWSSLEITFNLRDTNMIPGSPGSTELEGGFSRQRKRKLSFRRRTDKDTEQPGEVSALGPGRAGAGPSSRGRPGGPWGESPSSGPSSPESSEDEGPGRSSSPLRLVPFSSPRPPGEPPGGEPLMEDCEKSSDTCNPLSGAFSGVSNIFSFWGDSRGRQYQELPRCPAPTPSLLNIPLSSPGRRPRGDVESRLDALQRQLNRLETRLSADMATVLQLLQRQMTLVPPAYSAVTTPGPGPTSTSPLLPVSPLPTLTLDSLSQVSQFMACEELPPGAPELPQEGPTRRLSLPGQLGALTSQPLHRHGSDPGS

Row | SMILES | hERG current change (%, negative = inhibition) at 1uM [%]
1 | CSc1ccc(CCNC(=O)C2CCCN(c3nn4c(=O)cc(C)nc4s3)C2)cc1 (stereo not shown) | 4.39
2 | O=C(COC(=O)c1ccccc1O)Nc1cccc(S(=O)(=O)NC2=NCCCCC2)c1 | 12.3
3 | CCCn1nnnc1SCC(=O)N1CCCCC1 | 12.1
4 | CCOc1ccc(NC(=S)NC(=O)c2ccco2)cc1 | 13
5 | Cc1cc(C)nc(Nc2ccc(C)c([N+](=O)[O-])c2)n1 | 16.2
6 | CCOC(=O)N1CCN(C(=O)CCN2C(=O)COc3ccccc32)CC1 | 3.45
7 | CCCn1nnnc1NC(=O)COc1ccc(Cl)cc1C | 0.821
8 | O=S(=O)(c1ccc(N2CCN(Cc3ccccc3)CC2)nc1)N1CCCC1 | -3.39
9 | COc1ccc(N2C(=O)C(CC(=O)Nc3ccccc3)N(Cc3cccs3)C2=O)cc1 (stereo not shown) | 9.7
10 | CC(C)(C)OC(=O)NCCCCCO | 15.2
11 | CN1OC(COC(=O)c2ccc(Cl)cc2Cl)CC1c1ccccc1 (stereo not shown) | 10.8
12 | Cc1cc(OCCCCn2ccnc2)cc(C)c1Cl.Cl | 10.7
13 | CN(C)CCCNC(=O)c1ccc(Oc2ccccc2)cc1.Cl | 17.6
14 | O=C(O)c1oc2ccccc2c1CSCc1ccccc1 | 6.49
15 | CC1CCC(C(=O)NC(C(=O)NCc2cccnc2)C(C)C)CC1 (stereo not shown) | 3.13
16 | CCOC(=O)N1CCN(c2nc3ccccc3nc2C(C#N)S(=O)(=O)c2ccc(C)cc2)CC1 (stereo not shown) | 5.08
17 | CN(C)C(=O)C#Cc1ccccc1 | 11.4
18 | CC1=CC(=C(C#N)C#N)C=C(C)N1Cc1ccccc1 | 7.05
19 | COc1ccc(-c2nc(CS(=O)CC(=O)NC3CCCC(C)C3C)c(C)o2)cc1OC (stereo not shown) | 14.1
20 | CN(Cc1nccn1C)C(=O)c1cc(COc2cccc(C(F)(F)F)c2)on1 | 8.98
21 | CC(=O)/C=C/c1ccccc1O | 14.6
22 | O=C1N/C(=C/c2ccc(N3CCOCC3)o2)C(=O)N1c1ccccc1 | 6.75
23 | CCC(C(N)=NCCc1ccc(OC)c(OC)c1)c1ccccc1.Cl (stereo not shown) | 2.38

Row | SMILES | hERG current change (%, negative = inhibition) at 1uM [%]
24 | C/C(=N\NC(=O)C1CCCC1)c1ccc(Cl)cc1 | 9.87
25 | CCC1CCCCN1S(=O)(=O)c1ccc(S(=O)(=O)N2CCN(S(=O)(=O)CC)CC2)cc1 (stereo not shown) | 2.64
26 | COCCCNC(=S)N1CCN(c2nc(-c3ccc(F)cc3)cs2)CC1 | 5.43
27 | CC(=O)C1=C(C)NC(=O)NC1c1cccc([N+](=O)[O-])c1O (stereo not shown) | 29.9
28 | CC1CCCCC1NC(=O)C1CCC(CNc2c(N3CCCCC3)c(=O)c2=O)CC1 (stereo not shown) | 16.8
29 | CCOC(=O)C1CCN(C(=O)c2cc(C)n(C(C)(C)C)n2)CC1 | 13
30 | COC(=O)[C@H](CCSC)NC(=O)NCc1ccc(S(N)(=O)=O)cc1 | -0.982
31 | O=C(Nc1ccc(-c2ccco2)cc1)C1CCCN(Cc2ccc(CO)o2)C1 (stereo not shown) | 2.15
32 | C/C(=N\NC(=O)c1nnn(-c2nonc2N)c1-c1ccc2c(c1)OCO2)c1ccc(F)cc1 | 13.2
33 | O=C1CC(c2ccc(O)c(O)c2)Oc2cc(O)cc(O)c21 (stereo not shown) | 5.31
34 | Cc1cc2oc(=O)cc(CN3CCOCC3)c2cc1C | 2.35
35 | CCN(CC)S(=O)(=O)c1ccc(C(=O)Nn2cnnc2)cc1 | 10.5
36 | COCCNC(=O)CN(c1ccccc1OC)S(C)(=O)=O | 7.99
37 | CCCCCCn1c(O)c(C=NC2CCCCC2N)c(=O)[nH]c1=O (stereo not shown) | 12.2
38 | c1ccc2c(c1)ncn2-c1ccc(-c2ccnc(-c3ccncc3)n2)cc1 | 10.8
39 | O=C(Nc1ccc(N2CCN(C(=O)c3ccc(Cl)cc3)CC2)cc1)c1cc2ccccc2o1 | -1.08
40 | CC(=O)Nc1ccc(-c2ccc3nnc(C)n3n2)cc1 | 11.4
41 | O=C(NC1CCCCC1)[C@H](CSCc1ccccc1)N1Cc2ccccc2C1=O | -41.6
42 | CCN(CC)c1ccc(NC(=O)CN2C(=O)CSc3ncccc32)c(C)c1 | 4.2
43 | O=C(Cc1c(F)cccc1Cl)N1CCCC1 | 17.5
44 | Cc1ccc(Nc2nc(-c3sc(C)nc3C)cs2)cc1 | 14.6
45 | O=C(c1ccccc1)c1ccc2nc[nH]c2c1 | 9.84
46 | O=C(Cc1ccc(S(=O)(=O)N2CCOCC2)s1)Nc1nc2c(s1)CCCC2 | 5.04

Row | SMILES | hERG current change (%, negative = inhibition) at 1uM [%]
47 | COc1ccc(-c2nnc(-c3ccccc3O)o2)cc1 | 4.22
48 | CCOC(=O)c1c(NC(=O)CN2CCCc3ccccc32)sc(C)c1C | 12.1
49 | S=c1[nH]nc(-c2ccc3ccccc3n2)n1-c1cc(Cl)cc(Cl)c1 | 3.9
50 | O=C(NC1CCCCC1)C1Cc2ccccc2CN1S(=O)(=O)c1ccc(F)cc1 (stereo not shown) | 0.72
51 | CCC1=NN(C(=O)Cc2ccccc2)C(O)(c2ccncc2)C1 (stereo not shown) | 15.1
52 | NS(=O)(=O)c1ccc(NC(=O)c2ccc(CNS(=O)(=O)c3cc(C(F)(F)F)ccc3Cl)cc2)cc1 | 10.3
53 | COc1ccc(/C(C)=N/NC(=S)NCCc2ccccc2)c(O)c1 | 16.3
54 | O=C(/C=C/c1ccc([N+](=O)[O-])cc1)NCc1ccc2c(c1)OCO2 | 7.18
55 | CC(=O)N/C(=C\c1ccc(C)cc1)C(=O)O | 15.4
56 | CC1CCN(C(=O)Cn2ncc3c4ccccc4n(C)c3c2=O)CC1 | 12.8
57 | NNC(=O)Cc1cn(-c2ncc(C(F)(F)F)cc2Cl)c2ccccc12 | 3.78
58 | O=c1ccc(Cl)n[nH]1 | 12.6
59 | CC(=O)N1CCC(CCCC2CCN(C(C)=O)CC2)CC1 | 7.19
60 | C/C(=N\NC(=O)c1cccc(S(=O)(=O)Nc2ccccc2Cl)c1)c1ccco1 | 7.13
61 | Cc1ccc(S(=O)(=O)N2CC(O)CC2C(=O)NCc2ccc3c(c2)OCO3)cc1 (stereo not shown) | 8.6
62 | CN(c1ccccc1)S(=O)(=O)c1ccc(Cl)c(C(=O)NC2=NCCS2)c1 | 15.1
63 | CN(C)C(CNC(=O)CCc1nc2ccccc2s1)c1ccccc1 (stereo not shown) | 15.4
64 | CC(C)c1ccc(NC(=O)CCCN2C(=S)NC(C)(C)CC2C)cc1 (stereo not shown) | 2.22
65 | O=[N+]([O-])NC1=NCN(Cc2ccco2)CN1Cc1ccco1 | 5.75
66 | Cc1cc2c(c(=O)n1Cc1ccccn1)C(C(C)C)C(C#N)=C(N)O2 (stereo not shown) | 0.864
67 | O=C(O)CCC(=O)N1CCc2cc(S(=O)(=O)NC3CCCC3)ccc21 | 15
68 | Cc1ccccc1NC(=O)Cc1nc(CSc2nnc(-c3ccc4c(c3)OCO4)o2)cs1 | 14
69 | CCS(=O)(=O)N1CCC(C(=O)NCc2cccs2)CC1 | 5.4

Row | SMILES | hERG current change (%, negative = inhibition) at 1uM [%]
70 | O=C(Nc1ncc2c(n1)CC(c1ccco1)CC2=O)c1ccccc1 (stereo not shown) | 1.14
71 | O=C(O)c1cc(Cl)c(Cl)cc1C(=O)N(Cc1ccccc1)Cc1ccccc1 | 15.8
72 | O=C(Nc1cccc(S(=O)(=O)N2CCOCC2)c1)c1ccccc1[N+](=O)[O-] | 1.86
73 | c1ccc2c(c1)OCCc1c-2[nH]c2ccccc12 | 13.2
74 | Cl.c1ccc2c(c1)c1c3n2CCNC3CCC1 (stereo not shown) | 3.95
75 | CC(=O)Nc1ccccc1OC(C)C(=O)NC(C)c1ccc(F)cc1 (stereo not shown) | 8.06
76 | O=C(N/C(=C\c1ccco1)C(=O)N1CCOCC1)c1ccc([N+](=O)[O-])cc1 | -55.9
77 | CCc1ccc2[nH]c(=O)c(CN(Cc3ccc(F)cc3)C(c3nnnn3CCN3CCOCC3)C(C)C)cc2c1 (stereo not shown) | 5.2
78 | CCCOc1ccccc1C(=O)N(Cc1ccco1)C1CCS(=O)(=O)C1 (stereo not shown) | 7.82
79 | COc1ccc(-n2nc(C)cc2Nc2ccccc2C(=O)O)cc1 | 12.3
80 | Cc1cc(O)c(-c2cc(C(=O)NCc3ccc4c(c3)OCO4)[nH]n2)cc1C | -0.92
81 | C=CCOn1c(C)c(C(C)=O)c2c3no[n+]([O-])c3ccc21 | 1.03
82 | C=CCn1c(SCC(=O)N2CCc3ccccc3C2)nnc1-c1ccncc1 | -1.64
83 | COc1ccc(CC(=O)OC(C)CN2CCCC2)cc1.Cl (stereo not shown) | 11.8
84 | CCC(CC)C(=O)Nc1c2c(nn1-c1ccc(C)cc1)CS(=O)(=O)C2 | 5.47
85 | CC(C)C[C@@H](CSc1ccccc1)N1CCN(CC(C)C)CCC1=O | -45.1
86 | CCC(C(=O)NC(C)(C)C)N(C(=O)Cn1nnc(-c2ccccc2F)n1)c1cccc2c1CCCC2 (stereo not shown) | -1.6
87 | COc1ccc(OC)c(NC(=O)CN2C(=O)c3ccccc3S2(=O)=O)c1 | 4.15
88 | Br.Cc1cc(C)nc(SCc2csc(-c3ccccc3)n2)n1 | 31.6
89 | Nc1ccc(S(=O)(=O)N2CC3CC(C2)c2cccc(=O)n2C3)cc1 (stereo not shown) | 4.49
90 | C=CCn1c(O)c(C(C)=NCCCO)c(=O)[nH]c1=O | 1.37
91 | CC(C)(CNC(=O)c1ccc(S(=O)(=O)Nc2ccccc2F)cc1)N1CCOCC1 | 13.6
